Reference: the supplement of paper PMC4967469
The IC50 comes from the fitted curve, where viability falls to half of the control; where the fit passes the top or lowest dose, that dose stands as a limit. AUC sums up the same curve from the lowest dose to the 256-fold higher top dose; the more sensitive the line, the further below 1. An inferred top dose comes from the curve model; the source does not state it. For some of these results: Drugs with an entry number were screened twice under separate entries, and the two screens often disagree.

Legend:
Assay in all cases: Viability of human cancer cell lines after 72 h of drug (GDSC screen)
Shikonin = compound: CC(C)=CC[C@@H](O)C1=CC(=O)c2c(O)ccc(O)c2C1=O [Shikonin]; settings: top dose 16 µM; top dose inferred
Experimental: (§1)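 Human cancer cell lines in 384-well plates, medium with 10% serum, drug for 72 h over a 256-fold dose range (nine 2-fold or five 4-fold steps up to the top dose). Adherent lines were fixed and stained with the nucleic acid dye Syto60, suspension lines read with resazurin; signal relative to control wells, capped at 0 and 100%. One two-parameter sigmoid per drug and line, fitted in a mixed model over all curves with the slope shared within a line.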

CGP-082996 (CINK4) = compound: CCNc1cc(NC2CCC(O)CC2)nc(Nc2ccc3c(ccn3Cc3ccccc3)c2)n1 [CGP-082996 (CINK4)]; settings: top dose 5.12 µM; top dose inferred
Experimental: as §1

HG-5-113-01 = compound: CNC(=O)c1ccc(Nc2cc(Nc3ccccc3S(=O)(=O)C(C)C)c3cc[nH]c3n2)nc1 [HG-5-113-01]; settings: top dose 10 µM; top dose inferred
Experimental: as §1

A-770041 = compound: COc1cc(-c2nn([C@H]3CC[C@H](N4CCN(C(C)=O)CC4)CC3)c3ncnc(N)c23)ccc1NC(=O)c1cc2ccccc2n1C [A-770041]; settings: top dose 5.12 µM; top dose inferred
Experimental: as §1

BMS-536924 = compound: Cc1cc(N2CCOCC2)cc2[nH]c(-c3c(NC[C@@H](O)c4cccc(Cl)c4)cc[nH]c3=O)nc12 [BMS-536924]
Experimental: as §1

BIRB 0796 = compound: Cc1ccc(-n2nc(C(C)(C)C)cc2NC(=O)Nc2ccc(OCCN3CCOCC3)c3ccccc23)cc1 [BIRB 0796]; settings: top dose 10 µM; top dose inferred
Experimental: as §1

SB-525334 = compound: Cc1cccc(-c2[nH]c(C(C)(C)C)nc2-c2ccc3nccnc3c2)n1 [SB-525334]; settings: top dose 20 µM; top dose inferred
Experimental: as §1

Wee1 inhibitor 681640 = compound: O=C1NC(=O)c2c1c(-c1ccccc1Cl)cc1[nH]c3ccc(O)cc3c21 [Wee1 inhibitor 681640]; settings: top dose 2 µM; top dose inferred
Experimental: as §1

VX-702 = compound: NC(=O)c1ccc(N(C(N)=O)c2c(F)cccc2F)nc1-c1ccc(F)cc1F [VX-702]; settings: top dose 2 µM; top dose inferred
Experimental: as §1

Olaparib = compound: O=C(c1cc(Cc2n[nH]c(=O)c3ccccc23)ccc1F)N1CCN(C(=O)C2CC2)CC1 [Olaparib]
Experimental: as §1

XMD8-85 = compound: COc1cc(N2CCN(C)CC2)ccc1Nc1ncc2c(n1)N(C)c1ccccc1C(=O)N2C [XMD8-85]; settings: top dose 8 µM; top dose inferred
Experimental: as §1

[1] = top dose 4 µM, screen: GDSC drug entry 1091, top dose inferred
[2] = top dose 5.12 µM, screen: GDSC drug entry 62
[3] = top dose 5 µM, screen: GDSC drug entry 1017, top dose inferred
[4] = top dose 10 µM, screen: GDSC drug entry 1495

## NCI-H1355 (lung adenocarcinoma, adherent)
Shikonin
  AUC: 0.545
  IC50: 1.4 µM
CGP-082996 (CINK4)
  AUC: 0.839
  IC50: > 5.12 µM
HG-5-113-01
  AUC: 0.705
  IC50: 3.09 µM
A-770041
  AUC: 0.858
  IC50: > 5.12 µM
BMS-536924; [1]
  AUC: 0.757
  IC50: 1.98 µM
BMS-536924; [2]
  AUC: 0.519
  IC50: 0.369 µM
BIRB 0796
  AUC: 0.897
  IC50: > 10 µM
SB-525334
  AUC: 0.959
  IC50: > 20 µM
Wee1 inhibitor 681640
  AUC: 0.929
  IC50: > 2 µM

## NCI-H1648 (lung adenocarcinoma, adherent)
Shikonin
  AUC: 0.787
  IC50: 7.46 µM
CGP-082996 (CINK4)
  AUC: 0.889
  IC50: > 5.12 µM
HG-5-113-01
  AUC: 0.654
  IC50: 1.72 µM
A-770041
  AUC: 0.541
  IC50: 0.417 µM
BMS-536924; [1]
  AUC: 0.908
  IC50: > 4 µM
BMS-536924; [2]
  AUC: 0.427
  IC50: 0.199 µM
BIRB 0796
  AUC: 0.951
  IC50: > 10 µM
SB-525334
  AUC: 0.968
  IC50: > 20 µM
VX-702
  AUC: 0.952
  IC50: > 2 µM
Olaparib; [3]
  AUC: 0.985
  IC50: > 5 µM
Olaparib; [4]
  AUC: 0.966
  IC50: > 10 µM
Wee1 inhibitor 681640
  AUC: 0.97
  IC50: > 2 µM

## NCI-H1975 (lung adenocarcinoma, adherent)
Shikonin
  AUC: 0.308
  IC50: 0.264 µM
CGP-082996 (CINK4)
  AUC: 0.924
  IC50: > 5.12 µM
HG-5-113-01
  AUC: 0.786
  IC50: 4.99 µM
A-770041
  AUC: 0.51
  IC50: 0.343 µM
BMS-536924; [1]
  AUC: 0.853
  IC50: 3.86 µM
BMS-536924; [2]
  AUC: 0.509
  IC50: 0.341 µM
BIRB 0796
  AUC: 0.915
  IC50: > 10 µM
SB-525334
  AUC: 0.95
  IC50: > 20 µM
VX-702
  AUC: 0.983
  IC50: > 2 µM
Olaparib; [3]
  AUC: 0.983
  IC50: > 5 µM
Olaparib; [4]
  AUC: 0.968
  IC50: > 10 µM
Wee1 inhibitor 681640
  AUC: 0.971
  IC50: > 2 µM

## NCI-H2227 (small cell lung carcinoma, semi-adherent)
Shikonin
  AUC: 0.708
  IC50: 4.22 µM
XMD8-85
  AUC: 0.981
  IC50: > 8 µM
BMS-536924; [1]
  AUC: 0.942
  IC50: > 4 µM
BIRB 0796
  AUC: 0.982
  IC50: > 10 µM
SB-525334
  AUC: 0.904
  IC50: > 20 µM
VX-702
  AUC: 0.96
  IC50: > 2 µM
Olaparib; [3]
  AUC: 0.968
  IC50: > 5 µM
Olaparib; [4]
  AUC: 0.95
  IC50: > 10 µM
Wee1 inhibitor 681640
  AUC: 0.985
  IC50: > 2 µM

## RC-K8 (B-cell lymphoma, suspension)
Shikonin
  AUC: 0.557
  IC50: 1.4 µM
HG-5-113-01
  AUC: 0.97
  IC50: > 10 µM
XMD8-85
  AUC: 0.977
  IC50: > 8 µM
BMS-536924; [1]
  AUC: 0.992
  IC50: > 4 µM
BIRB 0796
  AUC: 0.911
  IC50: > 10 µM
SB-525334
  AUC: 0.972
  IC50: > 20 µM
VX-702
  AUC: 0.985
  IC50: > 2 µM
Olaparib; [3]
  AUC: 0.99
  IC50: > 5 µM
Olaparib; [4]
  AUC: 0.981
  IC50: > 10 µM
Wee1 inhibitor 681640
  AUC: 0.989
  IC50: > 2 µM

## SHP-77 (small cell lung carcinoma, semi-adherent)
Shikonin
  AUC: 0.446
  IC50: 0.724 µM
CGP-082996 (CINK4)
  AUC: 0.973
  IC50: > 5.12 µM
HG-5-113-01
  AUC: 0.831
  IC50: 5.43 µM
A-770041
  AUC: 0.862
  IC50: 3.65 µM
BMS-536924; [1]
  AUC: 0.956
  IC50: > 4 µM
BMS-536924; [2]
  AUC: 0.979
  IC50: > 5.12 µM
BIRB 0796
  AUC: 0.983
  IC50: > 10 µM
SB-525334
  AUC: 0.933
  IC50: > 20 µM
VX-702
  AUC: 0.991
  IC50: > 2 µM
Olaparib; [3]
  AUC: 0.991
  IC50: > 5 µM
Olaparib; [4]
  AUC: 0.985
  IC50: > 10 µM
Wee1 inhibitor 681640
  AUC: 0.987
  IC50: > 2 µM

## SNU-C2B (large intestine, adherent)
Shikonin
  AUC: 0.777
  IC50: 8.63 µM
CGP-082996 (CINK4)
  AUC: 0.952
  IC50: > 5.12 µM
HG-5-113-01
  AUC: 0.837
  IC50: > 10 µM
A-770041
  AUC: 0.821
  IC50: 4.29 µM
BMS-536924; [1]
  AUC: 0.906
  IC50: > 4 µM
BMS-536924; [2]
  AUC: 0.733
  IC50: 1.86 µM
BIRB 0796
  AUC: 0.976
  IC50: > 10 µM
SB-525334
  AUC: 0.937
  IC50: > 20 µM
VX-702
  AUC: 0.968
  IC50: > 2 µM
Olaparib; [3]
  AUC: 0.964
  IC50: > 5 µM
Olaparib; [4]
  AUC: 0.839
  IC50: > 10 µM
Wee1 inhibitor 681640
  AUC: 0.926
  IC50: > 2 µM

## SW982 (soft tissue, adherent)
Shikonin
  AUC: 0.143
  IC50: 0.0731 µM
CGP-082996 (CINK4)
  AUC: 0.923
  IC50: > 5.12 µM
HG-5-113-01
  AUC: 0.658
  IC50: 1.74 µM
A-770041
  AUC: 0.502
  IC50: 0.324 µM
BMS-536924; [1]
  AUC: 0.897
  IC50: > 4 µM
BMS-536924; [2]
  AUC: 0.634
  IC50: 0.758 µM
BIRB 0796
  AUC: 0.977
  IC50: > 10 µM
SB-525334
  AUC: 0.892
  IC50: > 20 µM
VX-702
  AUC: 0.974
  IC50: > 2 µM
Olaparib; [3]
  AUC: 0.883
  IC50: > 5 µM
Olaparib; [4]
  AUC: 0.858
  IC50: 8.58 µM
Wee1 inhibitor 681640
  AUC: 0.96
  IC50: > 2 µM

## TE-11 (oesophagus, adherent)
Shikonin
  AUC: 0.57
  IC50: 1.52 µM
CGP-082996 (CINK4)
  AUC: 0.926
  IC50: > 5.12 µM
A-770041
  AUC: 0.728
  IC50: 1.33 µM
BMS-536924; [1]
  AUC: 0.809
  IC50: 1.87 µM
BMS-536924; [2]
  AUC: 0.371
  IC50: 0.146 µM
BIRB 0796
  AUC: 0.981
  IC50: > 10 µM
SB-525334
  AUC: 0.979
  IC50: > 20 µM
VX-702
  AUC: 0.989
  IC50: > 2 µM
Olaparib; [3]
  AUC: 0.99
  IC50: > 5 µM
Olaparib; [4]
  AUC: 0.973
  IC50: > 10 µM
Wee1 inhibitor 681640
  AUC: 0.924
  IC50: > 2 µM

## TK (B-cell lymphoma, suspension)
Shikonin
  AUC: 0.415
  IC50: 0.598 µM
HG-5-113-01
  AUC: 0.77
  IC50: 3.48 µM
XMD8-85
  AUC: 0.943
  IC50: > 8 µM
BMS-536924; [1]
  AUC: 0.954
  IC50: > 4 µM
BIRB 0796
  AUC: 0.842
  IC50: 6.11 µM
SB-525334
  AUC: 0.97
  IC50: > 20 µM
VX-702
  AUC: 0.985
  IC50: > 2 µM
Olaparib; [3]
  AUC: 0.99
  IC50: > 5 µM
Olaparib; [4]
  AUC: 0.983
  IC50: > 10 µM
Wee1 inhibitor 681640
  AUC: 0.965
  IC50: > 2 µM

## UACC-812 (breast, adherent)
Shikonin
  AUC: 0.726
  IC50: 4.28 µM
XMD8-85
  AUC: 0.991
  IC50: > 8 µM
SB-525334
  AUC: 0.985
  IC50: > 20 µM

## VAL (B-cell lymphoma, suspension)
Shikonin
  AUC: 0.404
  IC50: 0.546 µM
HG-5-113-01
  AUC: 0.789
  IC50: 4.44 µM
XMD8-85
  AUC: 0.804
  IC50: 4 µM
BMS-536924; [1]
  AUC: 0.95
  IC50: > 4 µM
BIRB 0796
  AUC: 0.952
  IC50: > 10 µM
SB-525334
  AUC: 0.893
  IC50: > 20 µM
VX-702
  AUC: 0.946
  IC50: > 2 µM
Olaparib; [3]
  AUC: 0.985
  IC50: > 5 µM
Olaparib; [4]
  AUC: 0.977
  IC50: > 10 µM
Wee1 inhibitor 681640
  AUC: 0.938
  IC50: > 2 µM
